Data: PubChem BioAssay AID588342 (National Center for Advancing Translational Sciences (NCATS), 2011)
The campaign covered roughly 360,000 compounds. About 25,000 (6.9%) were called active. Inconclusive means that the source gave no clear call. Such entries were picked first, then a sample of the others. The call rests on the fitted dose curve; in most records, active means well fitted inhibition curve with a large enough effect; inconclusive means small, poorly fitted or top-dose-only effect; inactive means flat fitted curve, though single readings scatter. Potencies of inconclusive entries are doubtful fits and often do not repeat.

The molecules below were run against Luciferin 4-monooxygenase (Photinus pyralis) (UniProt P08659) (assay: qHTS profiling assay for firefly luciferase inhibitor/activator using purifed enzyme and Km concentrations of substrates (counterscreen for miR-21 project)). Details: purified FLuc, luminescence inhibition; activity change, negative = inhibition: at 57.5 µM (top of the series).
How it was run: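 Purified P. pyralis luciferase (10nM final) with 10uM D-luciferin and 10uM ATP (Km levels) in 50mM Tris acetate pH 7.5, 10mM Mg acetate, 0.01% Tween-20, 0.05% BSA; qHTS 6-point titration, ~60 µM downward; luminescence read.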
Further: nearly all actives have a fitted effect of over 55% in size.
Potency means the concentration at half of the fitted maximal effect; tags describe the fitted curve by direction and shape.
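Wherever activity change, negative = inhibition is given: plate controls were vehicle for no effect and reference inhibitor for full effect.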

Sequence of UniProt P08659 (P08659 whole entry, looked up): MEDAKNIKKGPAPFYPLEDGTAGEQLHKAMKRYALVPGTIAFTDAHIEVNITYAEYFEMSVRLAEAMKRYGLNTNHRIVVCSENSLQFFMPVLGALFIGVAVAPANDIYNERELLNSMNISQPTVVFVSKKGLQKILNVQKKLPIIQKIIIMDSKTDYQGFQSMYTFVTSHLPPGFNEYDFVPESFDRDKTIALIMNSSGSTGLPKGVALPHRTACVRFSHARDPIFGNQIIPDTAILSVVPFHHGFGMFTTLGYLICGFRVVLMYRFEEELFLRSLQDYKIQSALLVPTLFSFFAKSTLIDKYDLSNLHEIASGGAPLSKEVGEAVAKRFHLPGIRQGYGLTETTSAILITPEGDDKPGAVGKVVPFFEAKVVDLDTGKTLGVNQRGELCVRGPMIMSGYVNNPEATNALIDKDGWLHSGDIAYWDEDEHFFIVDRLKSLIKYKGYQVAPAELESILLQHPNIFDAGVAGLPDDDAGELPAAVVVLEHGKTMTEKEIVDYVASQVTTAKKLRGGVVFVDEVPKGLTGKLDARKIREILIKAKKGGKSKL

| SMILES | Potency | activity change, negative = inhibition |
| --- | --- | --- |
| Fc1ccc(N/N=C/C=C/c2ccccc2)c(F)c1 | active: 26.9 µM |  |
| Nc1ccc(-n2ccnc2)cc1 |  | inactive: -2.4% |
| COCCCNC(=O)CSC1=Nc2ccccc2C2=NC(CC(=O)NCc3ccccc3)C(=O)N12 (stereo unspecified) | inconclusive: 21.3 µM [inhibitor, partial curve, poor fit] |  |
| Cc1ccc(NC(=O)/C=C/c2cccs2)c([N+](=O)[O-])c1 | active: 1.51 µM |  |
| Cc1ccsc1C(=O)Nc1ccc(F)c([N+](=O)[O-])c1 | inconclusive: 19 µM [inhibitor, partial curve] |  |
| CCCCN(C)C(=O)Cn1c(SCC(=O)Nc2ccc(C)c(C)c2)nc2ccccc21 | inconclusive: 15.1 µM [inhibitor, partial curve, poor fit] |  |
| Cc1nc2ccccc2n1CCc1nc2c3ccccc3nc(SCc3ccc(F)cc3)n2n1 |  | inactive: -2.44% |
| O=C(Nc1ccc(CN2CCOCC2)cc1)c1cccc(-c2cc3ccccc3oc2=O)c1 | inconclusive: 23.9 µM [inhibitor, partial curve] |  |
| O=C(/C=C/c1cccs1)Nc1nncs1 | active: 16.9 µM |  |
| COc1cccc(Nc2nc(-c3ccc4c(c3)OCCO4)cs2)c1 | active: 3.38 µM |  |
| Cc1[nH]c2ccccc2c1C(=O)COC(=O)C1CCC1 | active: 15.1 µM |  |
| Cc1nc(-c2cc(-c3nc(-c4ccc(C(C)(C)C)cc4)no3)no2)cs1 | inconclusive: 37.9 µM [inhibitor, partial curve, poor fit] |  |
| Clc1ccc(-c2n[nH]c3c2CCC3)cc1Cl | inconclusive: 21.3 µM [inhibitor, partial curve, poor fit] |  |
| Cc1cc(N2CCOCC2)nc2ccc(NC(=O)CCC(=O)N3CCN(c4cccc(C(F)(F)F)c4)CC3)cc12 | inconclusive: 30.1 µM [inhibitor, partial curve, poor fit] |  |
| CC(C)c1ccc(C(=O)NCCCNC(=O)c2cnccn2)cc1 | inconclusive: 19 µM [inhibitor, partial curve] |  |
| Cc1c(Cl)cccc1-n1ncc(C(=O)Nc2ccc(F)cc2F)c1C1CCN(C(=O)OC(C)(C)C)CC1 |  | inactive: 1.76% |
| Cc1cc(Cl)ccc1NS(=O)(=O)c1ccc2c(c1)CC(C)N2C(=O)C1CCC1 (stereo unspecified) | inconclusive: 21.3 µM [inhibitor, partial curve, poor fit] |  |
| CC(C)NC(=O)CSc1nc(N)c(-c2ccccc2)c(=O)[nH]1 |  | inactive: 6.89% |
| NC(=O)NC(Cc1ccccc1)C(=O)NCCCSc1ccccc1 (stereo unspecified) |  | inactive: -1.65% |
| Cn1c2ccccc2c2nnc(SC3CCOC3=O)nc21 (stereo unspecified) | inconclusive: 37.9 µM [inhibitor, partial curve, poor fit] |  |
| Cc1ccccc1OCC(=O)NNC(=O)C1CC(=O)N(c2ccc3c(c2)OCCO3)C1 (stereo unspecified) |  | inactive: 3.97% |
| Cc1cc(O)c(/C=N/OCc2ccc(Cl)cc2Cl)c(=O)o1 | inconclusive: 26.9 µM [inhibitor, single point] |  |
| COc1cccc(NC(=O)Cn2c(=O)n(CC(=O)NCCc3ccccc3)c(=O)c3sccc32)c1 |  | inactive: 3.08% |

| SMILES | Potency | activity change, negative = inhibition |
| --- | --- | --- |
| CNS(=O)(=O)c1ccc(C(=O)NCC(=O)NCCC(c2ccccc2)c2ccccc2)cc1 |  | inactive: 13.3% |
| Cc1ccc(S(=O)(=O)N/N=C\c2cn(CC(N)=O)c3ccccc23)cc1 | inconclusive: 21.3 µM [inhibitor, partial curve, poor fit] |  |
| COC(=O)CCN(C(=O)c1ccc(N2CCCC2)c([N+](=O)[O-])c1)c1ccccn1 |  | inactive: -4.18% |
| O=C(CNC(=O)c1cccs1)c1ccc([N+](=O)[O-])cc1 | active: 23.9 µM |  |
| Cc1ccc(-c2cc(C(=O)N/N=C/C=C/c3ccccc3)n[nH]2)o1 | inconclusive: 10.7 µM [inhibitor, partial curve] |  |
| CCN(CC)c1ccc(NC(=O)CN2C(=O)c3cccnc3Sc3ccccc32)c(C)c1 |  | inactive: -18.1% |
| CCN1C(=O)c2ccc(C(=O)Nc3ccc(O)cc3C)cc2C1=O | inconclusive: 21.3 µM [inhibitor, single point] |  |
| N#Cc1ccc2[nH]cc(CCO)c2c1 | inconclusive: 21.3 µM [inhibitor, partial curve, poor fit] |  |
| C=CCN(CC=C)S(=O)(=O)c1ccc(C(=O)Nc2nnc(COC)o2)cc1 | inconclusive: 10.7 µM [inhibitor, partial curve, poor fit] |  |
| COc1ccccc1N1CC(C(=O)Nc2nnc(SCC(=O)NCC3CCCO3)s2)CC1=O (stereo unspecified) |  | inactive: 2.57% |
| S=c1[nH]nc(-c2ccc3ccccc3n2)o1 | inconclusive: 37.9 µM [inhibitor, single point] |  |
| CCCc1nc(Nc2nc3ccccc3o2)nc(C)c1C(=O)OCC | active: 2.69 µM |  |
| COc1ccc2oc(-c3ccc(C)c(NC(=O)CSc4ccc(Cl)cc4)c3)nc2c1 | inactive |  |
| Nc1c(C(=O)c2ccccc2)sc2snc(SCC(=O)c3ccccc3)c12 | active: 7.57 µM |  |
| CC(NC(=O)CN1CCN(c2ccccc2F)CC1)c1ccccc1 (stereo unspecified) |  | inactive: -0.959% |
| Cc1ccc(-c2cc(C(F)(F)F)c(C#N)c(SCC(=O)O)n2)cc1 | inconclusive: 21.3 µM [inhibitor, partial curve, poor fit] |  |
| COc1ccc(C(=O)NC(=S)Nc2ccc3[nH]c(=O)[nH]c3c2)c(OC)c1 |  | inactive: 1.32% |
| COc1ccc(NC(=O)Nc2ccccc2OCc2cc(=O)n3ccccc3n2)c(OC)c1 | inconclusive: 9.53 µM [inhibitor, partial curve, poor fit] |  |
| Nc1ccc(C(=O)OCC(=O)N2CCOCC2)cc1[N+](=O)[O-] | inconclusive: 19 µM [inhibitor, partial curve, poor fit] |  |
| Clc1nnc(N2CCCCC2)c2ccccc12 | inconclusive: 30.1 µM [inhibitor, single point] |  |
| CCOC(=O)Nc1ccc2c(c1)N(C(=O)CCN(CC)CC)c1ccccc1S2=O (stereo unspecified) |  | inactive: 0.315% |
| COc1ccc(NC(=O)COC(=O)CC2Sc3ccccc3NC2=O)cc1 (stereo unspecified) | inconclusive: 23.9 µM [inhibitor, partial curve] |  |
| CC(C)c1nnc(NC(=O)CSc2nc3ccccc3[nH]2)s1 | inconclusive: 19 µM [inhibitor, single point] |  |
